Results taken from PubChem BioAssay AID1508642 (National Center for Advancing Translational Sciences (NCATS), 2021).
In all, about 43,000 compounds went through this assay and about 200 (0.47%) were called active. Roughly 12% stayed inconclusive and do not appear here. Calls come from the whole dose curve; as a rule, active = well fitted cell-killing curve with a large enough effect; inconclusive = small, poorly fitted or top-dose-only effect, or effect the other way; inactive = flat fitted curve, though single readings scatter. The list shows a part of the results.

experiment: Cell viability qHTS assay in S16 Pmp22-F2sN cells; conditions: S16 Pmp22-F2sN Schwann cells (luciferase reporters placed in the Pmp22 gene) viability, CellTiter-Glo, 24 h; series mostly up to 57.5 µM; activity change, negative = cytotoxicity: at the top concentration; note: nearly all actives have a fitted effect of over 65% in size
How it was run: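 Rat S16 Schwann reporter line, 24 h treatment with library compounds delivered at 23 nL per well. Cell viability by CellTiter-Glo luminescence.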
% is set by controls: 0 for no effect and ±100 for the full control effect.

Row | SMILES | activity change, negative = cytotoxicity
1 | Cc1oc(-c2ccc(Cl)cc2)nc1Cn1c(=O)cc(C)c2c(C)nn(-c3cccc(F)c3)c21 | inactive: 0.482%
2 | Cc1ccc(C(=O)Nc2ccc(C(=O)OCc3cc(=O)n4nc(C5CC5)sc4n3)cc2)cc1 | inactive: 0.857%
3 | CC(=O)Nc1cccc(NC(=O)CSc2cn(CC(=O)N(C(C)C)C(C)C)c3ccccc23)c1 | inactive: -1.72%
4 | CCOc1cc(CNC(=O)CCCn2c(=O)c3cccn3c3cccnc32)cc(OCC)c1OCC | inactive: 8.5%
5 | COc1ccc(CCNC(=O)c2cc(Nc3cc(C)cc(C)c3)nc3ccccc23)cc1OC | inactive: -3.23%
6 | CCc1ccccc1NC(=O)Cn1nnc(-c2nc(-c3ccc(C)cc3)no2)c1N | inactive: 2.7%
7 | CCOC(=O)c1ccccc1NC(=O)CN1C(=O)CC(c2ccco2)Sc2ccccc21 (stereo not drawn) | inactive: 1.33%
8 | Cc1ccc2c(c1)sc1nc(-c3cc4ccccc4oc3=O)cn12 | inactive: -1.66%
9 | Cc1ccccc1C(=O)Nc1ccc(OCc2cc(=O)n3ccccc3n2)cc1 | inactive: -9.48%
10 | Cc1ccc(NC(=O)Cn2cc(S(=O)(=O)N3CCCC3)c(S(=O)(=O)N3CCCC3)c2)cc1F | inactive: 7.84%
11 | COc1cccc(NC(=O)CCN2CCN(c3ccccc3)CC2)c1 | inactive: -14.4%
12 | Cc1ccc(C)c(S(=O)(=O)c2nnn3c2nc(Nc2ccc(C)c(C)c2)c2ccccc23)c1 | inactive: 1.49%
13 | Cc1ccc(CCNC(=O)c2c[nH]c3ccc(S(=O)(=O)Nc4ccc(C)cc4C)cc3c2=O)cc1 | inactive: -0.593%
14 | CCSc1oc(-c2ccco2)nc1S(=O)(=O)c1ccc(Br)cc1 | inactive: -12.4%
15 | Cc1ccc(NC(=O)Cn2c(=O)c3ccccc3n3nncc23)cc1 | inactive: 1.8%
16 | COc1ccccc1NC(=O)Cn1c(=O)n(CCC(=O)NCC2CCCO2)c(=O)c2cc(OC)c(OC)cc21 (stereo not drawn) | inactive: -9.66%
17 | COc1ccccc1-c1cc2nc(C)c(CCC(=O)O)c(C)n2n1 | inactive: -0.142%
18 | CCC(=O)N1CCc2cc(S(=O)(=O)NCCC(=O)Nc3cc(C)ccc3OC)ccc21 | inactive: -8.04%
19 | Cc1ccc2nc(-c3ccc(O)cc3)c(Nc3ccc(Cl)cc3)n2c1 | inactive: -0.638%
20 | Cc1ccc(-c2nn(-c3ccc(F)cc3)c3c2cnc2cc(F)c(F)cc23)cc1 | inactive: 3.63%
21 | CCCN(CCC)C(=O)Cn1c(=O)n(-c2ccc(Cl)cc2)c(=O)c2c3c(sc21)CCCCC3 | inactive: 17.1%
22 | CCCc1cc(=O)[nH]c(SCC(=O)N2CCN(c3ccccc3OC)CC2)n1 | inactive: 11.1%
23 | COC(=O)CCNC(=O)NC(CCC(C)C)c1c(-n2cccc2)sc2c1CCN(C)C2 (stereo not drawn) | inactive: 18.2%
24 | O=S(=O)(c1ccc(-c2cc(C(F)(F)F)on2)s1)N1CCN(c2ccc(F)cc2)CC1 | inactive: 1.48%

Row | SMILES | activity change, negative = cytotoxicity
25 | COc1cc(NS(=O)(=O)c2cc3c(cc2C)N(C)CCO3)cc(OC)c1OC | inactive: 3.01%
26 | COc1ccc(NC(=O)C2CCCN(c3ncnc4c3nc3n4CCCCC3)C2)c(OC)c1 (stereo not drawn) | inactive: -0.426%
27 | Cc1cc(Br)ccc1NC(=O)Cn1cc(S(=O)(=O)N2CCN(c3ccccc3F)CC2)c2ccccc2c1=O | inactive: 0.0117%
28 | Cc1ccc(-n2c3c(cc(-c4nc(-c5ccc(Cl)cc5)cs4)c2=O)C(=O)CC(C)(C)C3)cc1C | inactive: 2.47%
29 | C#CCSc1nc(-c2ccccc2)cc(-c2ccccc2)c1C#N | inactive: 4.19%
30 | CCOc1ccc(CNC(=O)c2cnc3sc(N4CCOCC4)nn3c2=O)cc1 | inactive: 4.37%
31 | CCS(=O)(=O)N1CCc2cc(C(=O)Nc3ccc(C(=O)OC)cc3)ccc21 | inactive: 13%
32 | CCn1cc(C(=O)N2CCN(c3cccc(Cl)c3)CC2)c2cc(OC)c(OC)cc2c1=O | inactive: -0.329%
33 | CC1=C(c2ccc(C(C)C)cc2)S(=O)(=O)NC1=NCCCN1CCN(c2ccccc2F)CC1 | inactive: 19.7%
34 | Cc1ccc(C)c(N2CCN(C(=O)CCc3nnc4n(CC(C)C)c(=O)c5ccccc5n34)CC2)c1 | inactive: 13.4%
35 | O=C(Nc1ccc(F)cc1F)c1cc(-c2ccc(Cl)cc2)on1 | inactive: 18.4%
36 | CCOC(=O)c1ccc(NC(=O)CCn2c(=O)c3cccn3c3cccnc32)cc1 | inactive: 15.8%
37 | CCc1cccc(NS(=O)(=O)c2ccc(-n3cccn3)cc2)c1 | inactive: -15.1%
38 | CCN(CC)C(=O)Cn1c(=O)n(-c2ccc(C)c(C)c2)c(=O)c2c3c(sc21)CCCCC3 | inactive: 17.8%
39 | COc1cccc(C(=O)Nc2cccc(-c3cn4ccsc4n3)c2)c1OC | inactive: -8.17%
40 | Cc1ccccc1-c1noc(-c2cccnc2N2CCN(c3ccccc3)CC2)n1 | inactive: 11.4%
41 | Cc1cccc(-c2nc3c4ccccc4n(Cc4cccc(Cl)c4)c(=O)n3n2)c1 | inactive: -10.2%
42 | O=C(CN1C(=O)COc2ccc(S(=O)(=O)N3CCOCC3)cc21)N1CCN(c2cccc(Cl)c2)CC1 | inactive: 3.22%
43 | COc1ccc(NC(=O)c2ccc3c(SCC(=O)O)c4c(nc3c2)CCCC4)c(OC)c1 | inactive: 12.5%
44 | CCOc1ccc(S(=O)(=O)c2cn(Cc3ccccc3C)c3ccc(OC)cc3c2=O)cc1 | inactive: -15.4%
45 | CCc1nn(CC(=O)NCCCN2CCN(CC)CC2)c(=O)c2cc3occc3n12 | inactive: -5.36%
46 | O=C(c1ccc(F)cc1)N1CCC(c2nc(-c3ccc(S(=O)(=O)N4CCCC4)cc3)no2)CC1 | inactive: 13.6%
47 | COc1ccccc1N(CC(=O)Nc1ccc2c(c1)OCO2)S(=O)(=O)c1ccc(C)cc1 | inactive: 7.15%
48 | O=C(Cn1cnc2onc(-c3ccc(F)cc3)c2c1=O)Nc1ccc(F)c(Cl)c1 | inactive: 1.24%

Row | SMILES | activity change, negative = cytotoxicity
49 | O=C(CN1c2ccccc2S(=O)(=O)c2ccccc21)Nc1ccccc1Cl | inactive: -7.15%
50 | NC(=O)Cn1c(=O)n(CCCCCC(=O)NCc2ccc(F)cc2)c(=O)c2sccc21 | inactive: 20.6%
51 | O=C(C1COc2ccccc2O1)N(Cc1cccnc1)c1nc2c(Cl)cccc2s1 (stereo not drawn) | inactive: -1.26%
52 | COc1ccc(OC)c(NC(=O)CSc2ncc3c(n2)-c2ccccc2N(C)S3(=O)=O)c1 | inactive: 2.41%
53 | CCCNC(=O)c1ccc(-c2nc(CS(=O)(=O)c3ccc(C)cc3)c(C)o2)cc1 | inactive: -4.12%
54 | Cc1ccc2c(c1)c(CC(=O)Nc1ccc(C)c(F)c1)c(C(=O)O)n2C | inactive: 2.68%
55 | Cc1ccc2nc(COc3ccccc3NC(=O)c3ccccc3F)cc(=O)n2c1 | inactive: 9.88%
56 | CCOc1cccc(C2c3[nH]c4ccccc4c3CCN2C(=O)CSCc2ccc(F)cc2)c1 (stereo not drawn) | inactive: -17%
57 | CCc1cccc(NC(=O)C2Cc3ccccc3N2C(=O)c2ccccc2)c1 (stereo not drawn) | inactive: -7.08%
58 | CCOc1ccc(C(=O)N(Cc2cc(OC)c(OC)c(OC)c2)c2ccccn2)cc1 | inactive: 2.17%
59 | COc1ccc(N(CC(=O)Nc2cccc(C(C)=O)c2)S(=O)(=O)c2ccccc2)c(OC)c1 | inactive: -0.912%
60 | CCOC(=O)C1=C(C)NC(=O)NC1c1cn(-c2ccccc2)nc1-c1ccc(OC(C)C)cc1 (stereo not drawn) | inactive: 0.111%
61 | Cc1nn(C)c2c1c(C(F)(F)F)cc(=O)n2C(C)C(=O)NCCc1ccccc1 (stereo not drawn) | inactive: 8.7%
62 | CCc1ccc(NC(=O)C(NS(=O)(=O)c2cccc3nsnc23)c2ccccc2)cc1 (stereo not drawn) | inactive: 4.92%
63 | Nc1cc(=O)nc(SCC(=O)Nc2ccc(F)cc2)n1-c1cccc(Cl)c1 | inactive: 6.86%
64 | Cc1cccc(N2CCN(C(=O)c3c(C)oc4ncnc(N5CCOCC5)c34)CC2)c1C | inactive: -0.888%
65 | COc1ccc(C)cc1NC(=O)c1cc(S(=O)(=O)N2CCC(C)CC2)cn1C | inactive: 19.1%
66 | Cc1nn(C(=O)COc2ccccc2Br)c(C)c1Sc1ccccc1 | inactive: 1.49%
67 | O=C(CSc1n[nH]c(-c2ccccc2)n1)N1CCN(c2ccccc2F)CC1 | inactive: 4.46%
68 | Cc1cccc(NC(=O)c2sc3nc(-c4ccccc4)cn3c2C)c1C | inactive: -14.4%
69 | COc1ccc2c(CNCc3ccccc3OC)c(C(=O)O)n(Cc3ccc(F)cc3Cl)c2c1 | inactive: -3.23%
70 | CCc1ccc(NC(=O)C2CCC(CNS(=O)(=O)c3ccc4c(c3)C(C)(C)C(=O)N4C)CC2)cc1 (stereo not drawn) | inactive: 13.9%
71 | Cc1cccc(NC(=O)C(=O)NCCc2sc(-c3ccccc3)nc2C)c1C | inactive: 13.6%
72 | Cc1c(Cl)cccc1NC(=O)C(CCS(C)(=O)=O)N1Cc2ccccc2C1=O (stereo not drawn) | inactive: 1.61%

Row | SMILES | activity change, negative = cytotoxicity
73 | COc1ccc(-c2cn3c(n2)sc2cc(C(=O)NC4CCCCCC4)ccc23)cc1 | inactive: -1.48%
74 | Cc1ccc(Cl)cc1NC(=O)N1CCC2(CC1)Oc1ccccc1C(=O)N2Cc1ccccc1F | inactive: -0.0945%
75 | CCS(=O)(=O)N1CC(=O)N(c2cc(C)ccc2C)C(C)(C(=O)NC2CCCCC2)C1 (stereo not drawn) | inactive: 11.4%
76 | COc1ccc(-n2nnc(-c3nsc(NC(=O)c4cccs4)n3)c2C)cc1OC | inactive: -4.6%
77 | CC(CNC(=O)c1cc(-c2ccccc2)n[nH]1)c1ccccc1 (stereo not drawn) | inactive: 7.03%
78 | CC1CCCN(c2c(S(=O)(=O)c3ccccc3)cnc3ccc(Cl)cc23)C1 (stereo not drawn) | inactive: -8.84%
79 | Cc1ccc(S(=O)(=O)c2c(Nc3cc(C)ccc3C)sc(C(=O)c3ccc4c(c3)OCO4)c2N)cc1 | inactive: -25.1%
80 | COC(=O)c1ccc(Cn2c(SCc3ccccc3F)nc3ccncc32)cc1 | inactive: 3.93%
81 | CCOc1ccc(CCNC(=O)Cn2c(=O)c3cccn3c3ccc(F)cc32)cc1OCC | inactive: 10.1%
82 | Cc1nc2nc(NCc3cccc(Cl)c3)[nH]n2c(=O)c1Cc1ccccc1 | inactive: 17.1%
83 | CCOc1ccc2nc(N3CCCC(C(=O)NCCCOC)C3)sc2c1 (stereo not drawn) | inactive: -5.33%
84 | COc1cccc(C(=O)c2cn(CC(=O)Nc3cccc(C(F)(F)F)c3)c3nc(C)ccc3c2=O)c1 | inactive: 0.199%
85 | CCN(CC)S(=O)(=O)c1ccc2c(c1)nc(CN(C)C(=O)Nc1cccc(Cl)c1)n2C | inactive: -27.8%
86 | CCCN(CCC)C(=O)CN1C(=O)CSc2ccc(S(=O)(=O)N3CCC(C)CC3)cc21 | inactive: -7.83%
87 | COc1ccc(Cn2c(CCC(=O)Nc3ccc(C)c(C)c3)nc3cccnc32)cc1 | inactive: -2.45%
88 | CC(=O)N1CCc2cc(S(=O)(=O)NC(CC(C)C)C(=O)NCCc3ccc(C)cc3)ccc21 (stereo not drawn) | inactive: -6.45%
89 | COc1ccc(OCCn2c(C(C)Oc3ccccc3)nc3ccccc32)cc1 (stereo not drawn) | inactive: -24.8%
90 | Cc1ccc(Cl)cc1-n1ncc2c(NCc3ccc(F)cc3)ncnc21 | inactive: -26.2%
91 | COc1ccc(CNC(=O)C2CCN(S(=O)(=O)c3ccc(F)cc3)CC2)cc1 | inactive: 7.04%
92 | CSc1ncc(C(=O)Nc2cccc(C)c2C)c(-c2ccccc2)n1 | inactive: 17.1%
93 | Cc1ccc(-c2nc(-c3cc4cccc(OCc5ccc(F)cc5)c4oc3=O)no2)cc1 | inactive: 4.78%
